# Reference: the supplement of paper PMC10037445
# In all, about 2,900 compounds were measured (“NF-kB SEAP reporter activity, fold change vs agonist alone”: median about 0.99, highest 2% from about 2.6 on). The list shows a part of the results.
# Experiments:
# RAW-Dual [1] = experiment: NF-kB SEAP reporter activity, fold change vs agonist alone; higher = enhanced NF-kB activity; conditions: library stock concentration (final ~1000-fold dilution): 10 mM
# Procedure, shortened: (§1)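 Reporter activity is given as fold change relative to agonist-alone wells. To measure it, 50 nL of library stock was pin-tooled onto RAW-Dual macrophages (50,000 cells/well, DMEM, 384-well plates), a PRR agonist followed 1 h later, and cells stayed at 37 °C, 5% CO2. Twenty hours on, supernatant was assayed for IRF (QuantiLuc luminescence) and NF-κB (QuantiBlue, 620 nm absorbance), and wells under 70% of agonist-control IncuCyte confluency in both mask sets were marked cytotoxic.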
# RAW-Dual [2] = experiment: NF-kB SEAP reporter activity, fold change vs agonist alone; cytotoxicity flag (confluency mask): cytotoxic (confluency <70% of control); higher = enhanced NF-kB activity
# Procedure, shortened: as §1
# RAW-Dual [3] = experiment: NF-kB SEAP reporter activity, fold change vs agonist alone; cytotoxicity flag (confluency mask): not cytotoxic; higher = enhanced NF-kB activity
# Procedure, shortened: as §1
# [4] = cytotoxicity flag (confluency mask): cytotoxic (confluency <70% of control), agonist: Imiquimod (TLR7) […]
# [5] = cytotoxicity flag (confluency mask): cytotoxic (confluency <70% of control), agonist: MPLA (TLR4) […]
# [6] = agonist: ODN 1826 (TLR9) 0.5 ug/mL
# [7] = agonist: Pam2CSK4 (TLR2/6) 0.1 ug/mL
# [8] = agonist: Pam3CSK4 (TLR2/1) 0.1 ug/mL
# [9] = cytotoxicity flag (confluency mask): not cytotoxic, agonist: Imiquimod (TLR7) […]
# [10] = cytotoxicity flag (confluency mask): not cytotoxic, agonist: MPLA (TLR4) […]
structure (smiles),measurement,setting,value
Nc1ncnc2c1c(I)cn2C1OC(CO)C(O)C1O (stereo unspecified),NF-kB SEAP reporter activity,RAW-Dual [1]; [4],0.145
same,NF-kB SEAP reporter activity,RAW-Dual [1]; [5],0.26
Nc1ncnc2c1c(I)cn2C1OC(CO)C(O)C1O (stereo unspecified) (library stock concentration (final ~1000-fold dilution): 10 mM),NF-kB SEAP reporter activity,RAW-Dual [2]; agonist: LPS (TLR4) 0.1 ug/mL,0.213
same,NF-kB SEAP reporter activity,RAW-Dual [2]; [6],0.195
same,NF-kB SEAP reporter activity,RAW-Dual [2]; [7],0.0844
same,NF-kB SEAP reporter activity,RAW-Dual [2]; [8],0.123
CC(C)CC(=O)Nc1cncc(-c2ccc3[nH]nc(-c4nc5cncc(-c6cccc(F)c6)c5[nH]4)c3c2)c1,NF-kB SEAP reporter activity,RAW-Dual [1]; [4],0.791
same,NF-kB SEAP reporter activity,RAW-Dual [1]; [5],1.48
CC(C)CC(=O)Nc1cncc(-c2ccc3[nH]nc(-c4nc5cncc(-c6cccc(F)c6)c5[nH]4)c3c2)c1 (library stock concentration (final ~1000-fold dilution): 10 mM),NF-kB SEAP reporter activity,RAW-Dual [2]; agonist: LPS (TLR4) 0.1 ug/mL,0.623
same,NF-kB SEAP reporter activity,RAW-Dual [2]; [6],0.492
same,NF-kB SEAP reporter activity,RAW-Dual [2]; [7],0.243
same,NF-kB SEAP reporter activity,RAW-Dual [2]; [8],0.316
CC(=O)Oc1cc(C)c(OC(C)=O)c2ccccc12,NF-kB SEAP reporter activity,RAW-Dual [1]; [5],0.207
CC(=O)Oc1cc(C)c(OC(C)=O)c2ccccc12 (library stock concentration (final ~1000-fold dilution): 10 mM),NF-kB SEAP reporter activity,RAW-Dual [2]; agonist: LPS (TLR4) 0.1 ug/mL,0.208
same,NF-kB SEAP reporter activity,RAW-Dual [2]; [6],0.151
same,NF-kB SEAP reporter activity,RAW-Dual [2]; [7],0.493
same,NF-kB SEAP reporter activity,RAW-Dual [2]; [8],0.349
COc1cc2ncnc(Nc3ccc(F)c(Cl)c3)c2cc1NC(=O)/C=C/CN1CCCCC1 (library stock concentration (final ~1000-fold dilution): 10 mM),NF-kB SEAP reporter activity,RAW-Dual [2]; agonist: LPS (TLR4) 0.1 ug/mL,0.266
same,NF-kB SEAP reporter activity,RAW-Dual [2]; [6],0.26
same,NF-kB SEAP reporter activity,RAW-Dual [2]; [7],0.179
same,NF-kB SEAP reporter activity,RAW-Dual [2]; [8],0.384
COc1cc2ncnc(Nc3ccc(F)c(Cl)c3)c2cc1NC(=O)/C=C/CN1CCCCC1,NF-kB SEAP reporter activity,RAW-Dual [1]; [4],2.28
same,NF-kB SEAP reporter activity,RAW-Dual [1]; [5],1.52
CC(C)CCn1c(CN2CCN(C(=O)C3CC3)CC2)nc2c1c(=O)n(C)c(=O)n2C (library stock concentration (final ~1000-fold dilution): 10 mM),NF-kB SEAP reporter activity,RAW-Dual [3]; agonist: LPS (TLR4) 0.1 ug/mL,0.909
same,NF-kB SEAP reporter activity,RAW-Dual [3]; [6],0.963
same,NF-kB SEAP reporter activity,RAW-Dual [3]; [7],0.957
same,NF-kB SEAP reporter activity,RAW-Dual [3]; [8],1.13
CC(C)CCn1c(CN2CCN(C(=O)C3CC3)CC2)nc2c1c(=O)n(C)c(=O)n2C,NF-kB SEAP reporter activity,RAW-Dual [1]; [9],0.935
same,NF-kB SEAP reporter activity,RAW-Dual [1]; [10],0.995
O=C(O)CCC1CCC(c2cc(F)ccc2F)(S(=O)(=O)c2ccc(Cl)cc2)CC1 (stereo unspecified),NF-kB SEAP reporter activity,RAW-Dual [1]; [9],0.954
same,NF-kB SEAP reporter activity,RAW-Dual [1]; [10],1.13
O=C(O)CCC1CCC(c2cc(F)ccc2F)(S(=O)(=O)c2ccc(Cl)cc2)CC1 (stereo unspecified) (library stock concentration (final ~1000-fold dilution): 10 mM),NF-kB SEAP reporter activity,RAW-Dual [3]; agonist: LPS (TLR4) 0.1 ug/mL,1.2
same,NF-kB SEAP reporter activity,RAW-Dual [3]; [6],1.14
same,NF-kB SEAP reporter activity,RAW-Dual [3]; [7],1.17
same,NF-kB SEAP reporter activity,RAW-Dual [3]; [8],1.05
NS(=O)(=O)C#Cc1ccccc1 (library stock concentration (final ~1000-fold dilution): 10 mM),NF-kB SEAP reporter activity,RAW-Dual [3]; agonist: LPS (TLR4) 0.1 ug/mL,0.198
same,NF-kB SEAP reporter activity,RAW-Dual [3]; [6],0.437
same,NF-kB SEAP reporter activity,RAW-Dual [3]; [7],0.143
same,NF-kB SEAP reporter activity,RAW-Dual [3]; [8],0.28
NS(=O)(=O)C#Cc1ccccc1,NF-kB SEAP reporter activity,RAW-Dual [1]; [9],1.65
same,NF-kB SEAP reporter activity,RAW-Dual [1]; [10],0.392
C=CC(=O)Nc1cccc(Oc2nc(Nc3ccc(N4CCN(C)CC4)c(F)c3)nc3[nH]ccc23)c1 (library stock concentration (final ~1000-fold dilution): 10 mM),NF-kB SEAP reporter activity,RAW-Dual [2]; agonist: LPS (TLR4) 0.1 ug/mL,0.479
same,NF-kB SEAP reporter activity,RAW-Dual [2]; [6],0.174
same,NF-kB SEAP reporter activity,RAW-Dual [2]; [7],0.112
same,NF-kB SEAP reporter activity,RAW-Dual [2]; [8],0.13
C=CC(=O)Nc1cccc(Oc2nc(Nc3ccc(N4CCN(C)CC4)c(F)c3)nc3[nH]ccc23)c1,NF-kB SEAP reporter activity,RAW-Dual [1]; [4],0.14
same,NF-kB SEAP reporter activity,RAW-Dual [1]; [5],0.276
NC1CCCN(c2c(/C=C3\SC(=O)NC3=O)cccc2-c2ccccc2)C1 (stereo unspecified),NF-kB SEAP reporter activity,RAW-Dual [1]; [9],1.83
same,NF-kB SEAP reporter activity,RAW-Dual [1]; [10],1.45
NC1CCCN(c2c(/C=C3\SC(=O)NC3=O)cccc2-c2ccccc2)C1 (stereo unspecified) (library stock concentration (final ~1000-fold dilution): 10 mM),NF-kB SEAP reporter activity,RAW-Dual [3]; agonist: LPS (TLR4) 0.1 ug/mL,1.13
same,NF-kB SEAP reporter activity,RAW-Dual [3]; [6],1.23
same,NF-kB SEAP reporter activity,RAW-Dual [3]; [7],0.982
same,NF-kB SEAP reporter activity,RAW-Dual [3]; [8],1.63
CC(C)(C)c1cc(NC(=O)Nc2ccc(Oc3ccnc4[nH]c(=O)cnc34)cc2F)n(-c2ccccc2)n1,NF-kB SEAP reporter activity,RAW-Dual [1]; [4],0.131
same,NF-kB SEAP reporter activity,RAW-Dual [1]; [5],0.26
CC(C)(C)c1cc(NC(=O)Nc2ccc(Oc3ccnc4[nH]c(=O)cnc34)cc2F)n(-c2ccccc2)n1 (library stock concentration (final ~1000-fold dilution): 10 mM),NF-kB SEAP reporter activity,RAW-Dual [2]; agonist: LPS (TLR4) 0.1 ug/mL,0.261
same,NF-kB SEAP reporter activity,RAW-Dual [2]; [6],0.18
same,NF-kB SEAP reporter activity,RAW-Dual [2]; [7],0.0633
same,NF-kB SEAP reporter activity,RAW-Dual [2]; [8],0.129
CC(C)(O)CNc1nc(Nc2ccnc(C(F)(F)F)c2)nc(-c2cccc(C(F)(F)F)n2)n1 (library stock concentration (final ~1000-fold dilution): 10 mM),NF-kB SEAP reporter activity,RAW-Dual [3]; agonist: LPS (TLR4) 0.1 ug/mL,1.51
same,NF-kB SEAP reporter activity,RAW-Dual [3]; [6],1.61
same,NF-kB SEAP reporter activity,RAW-Dual [3]; [7],1.09
same,NF-kB SEAP reporter activity,RAW-Dual [3]; [8],1.59
CC(C)(O)CNc1nc(Nc2ccnc(C(F)(F)F)c2)nc(-c2cccc(C(F)(F)F)n2)n1,NF-kB SEAP reporter activity,RAW-Dual [1]; [9],1.19
same,NF-kB SEAP reporter activity,RAW-Dual [1]; [10],1.28
Cc1cc(Nc2ncc(Cl)c(Nc3ccccc3S(=O)(=O)C(C)C)n2)c(OC(C)C)cc1C1CCNCC1 (library stock concentration (final ~1000-fold dilution): 10 mM),NF-kB SEAP reporter activity,RAW-Dual [2]; agonist: LPS (TLR4) 0.1 ug/mL,0.198
same,NF-kB SEAP reporter activity,RAW-Dual [2]; [6],0.674
same,NF-kB SEAP reporter activity,RAW-Dual [2]; [7],0.845
same,NF-kB SEAP reporter activity,RAW-Dual [2]; [8],0.455
Cc1cc(Nc2ncc(Cl)c(Nc3ccccc3S(=O)(=O)C(C)C)n2)c(OC(C)C)cc1C1CCNCC1,NF-kB SEAP reporter activity,RAW-Dual [1]; [4],2.07
same,NF-kB SEAP reporter activity,RAW-Dual [1]; [5],0.569
COCCCOc1ccnc(C[S+]([O-])c2nc3ccccc3[nH]2)c1C (stereo unspecified) (library stock concentration (final ~1000-fold dilution): 10 mM),NF-kB SEAP reporter activity,RAW-Dual [3]; agonist: LPS (TLR4) 0.1 ug/mL,1.25
same,NF-kB SEAP reporter activity,RAW-Dual [3]; [6],1.14
same,NF-kB SEAP reporter activity,RAW-Dual [3]; [7],0.738
same,NF-kB SEAP reporter activity,RAW-Dual [3]; [8],0.853
COCCCOc1ccnc(C[S+]([O-])c2nc3ccccc3[nH]2)c1C (stereo unspecified),NF-kB SEAP reporter activity,RAW-Dual [1]; [10],0.99
CC(C)=CCC/C(C)=C\CO (library stock concentration (final ~1000-fold dilution): 10 mM),NF-kB SEAP reporter activity,RAW-Dual [3]; agonist: LPS (TLR4) 0.1 ug/mL,0.918
same,NF-kB SEAP reporter activity,RAW-Dual [3]; [6],1.1
same,NF-kB SEAP reporter activity,RAW-Dual [3]; [7],1.09
same,NF-kB SEAP reporter activity,RAW-Dual [3]; [8],1.17
CC(C)=CCC/C(C)=C\CO,NF-kB SEAP reporter activity,RAW-Dual [1]; [9],1.01
same,NF-kB SEAP reporter activity,RAW-Dual [1]; [10],1.05
CC(Cc1ccc(O)c(O)c1)C(C)Cc1ccc(O)c(O)c1 (stereo unspecified) (library stock concentration (final ~1000-fold dilution): 10 mM),NF-kB SEAP reporter activity,RAW-Dual [2]; agonist: LPS (TLR4) 0.1 ug/mL,0.484
same,NF-kB SEAP reporter activity,RAW-Dual [2]; [6],0.406
same,NF-kB SEAP reporter activity,RAW-Dual [2]; [7],0.617
same,NF-kB SEAP reporter activity,RAW-Dual [2]; [8],0.262
CC(Cc1ccc(O)c(O)c1)C(C)Cc1ccc(O)c(O)c1 (stereo unspecified),NF-kB SEAP reporter activity,RAW-Dual [1]; [4],1.15
same,NF-kB SEAP reporter activity,RAW-Dual [1]; [5],0.895
Nc1ncc(-c2ccnc(Nc3ccncc3)n2)c(CC2CC2)n1 (library stock concentration (final ~1000-fold dilution): 10 mM),NF-kB SEAP reporter activity,RAW-Dual [2]; agonist: LPS (TLR4) 0.1 ug/mL,4.89
C=C1CC23CCC4C(C)(C(=O)O)CCCC4(C)C2CCC1C3 (stereo unspecified),NF-kB SEAP reporter activity,RAW-Dual [1]; [9],0.739
same,NF-kB SEAP reporter activity,RAW-Dual [1]; [10],0.753
C=C1CC23CCC4C(C)(C(=O)O)CCCC4(C)C2CCC1C3 (stereo unspecified) (library stock concentration (final ~1000-fold dilution): 10 mM),NF-kB SEAP reporter activity,RAW-Dual [3]; agonist: LPS (TLR4) 0.1 ug/mL,0.821
same,NF-kB SEAP reporter activity,RAW-Dual [3]; [6],0.749
same,NF-kB SEAP reporter activity,RAW-Dual [3]; [7],0.65
same,NF-kB SEAP reporter activity,RAW-Dual [3]; [8],0.646
Nc1nc(F)nc2c1ncn2C1OC(COP(=O)(O)O)C(O)C1O (stereo unspecified) (library stock concentration (final ~1000-fold dilution): 10 mM),NF-kB SEAP reporter activity,RAW-Dual [3]; agonist: LPS (TLR4) 0.1 ug/mL,1.14
same,NF-kB SEAP reporter activity,RAW-Dual [3]; [6],1.01
same,NF-kB SEAP reporter activity,RAW-Dual [3]; [7],1
same,NF-kB SEAP reporter activity,RAW-Dual [3]; [8],1.15
Nc1nc(F)nc2c1ncn2C1OC(COP(=O)(O)O)C(O)C1O (stereo unspecified),NF-kB SEAP reporter activity,RAW-Dual [1]; [9],0.903
same,NF-kB SEAP reporter activity,RAW-Dual [1]; [10],1.03
